# ± gives the standard deviation of the averaged measurements. This is one part of the list.
# Test system: PfAP2-EXP AP2 domain (GST-tagged)
# Experiment: gcPBM binding intensity (ln(normalized median fluorescence intensity)); higher = stronger DNA binding
# Method in brief: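 Alexa488 anti-GST antibody, scanned at 488 nm, detected GST-tagged P. falciparum DNA-binding domains that had been expressed in E. coli and incubated for 1 h on an Agilent 4 × 180k array. The array carried primer-extended double-stranded 36-bp intergenic genomic probes and negative controls. Binding intensity is the highest Masliner-normalised natural-log median intensity across replicate spots of either orientation of each probe.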
row,Sequence,gcPBM binding intensity (ln)
1,ATATAAATATGACACACACACAAAAAAAATAAAGAC [CACACA_site6208],9.23 ± 0.45
2,TATAATATATTTTGATGTACAAATATATTATATATA [XGTACX_site8633],8.21 ± 0.19
3,AGTATACACGAACACACACACACATATATAAATATA [CACACA_site6913],8.69 ± 0.61
4,TAAAGTATTACAACCACACACACACCCATATATTAT [CACACA_site4159],8.82 ± 0.44
5,TAAGTGTATGTATATAAACACACATACATATATATA [CACACA_site8397],8.46 ± 0.28
6,TAATTTAAAAATTCCTGTACTCAGTTTTTTCTATTT [XGTACX_site4961],8.48 ± 0.39
7,ATTTTTTTATACAATTTTATATATTAAATATTATAA [GTGCAC_negctrl_site86],8.31 ± 0.41
8,TAAAAATGGGAGGGGTGTACTACACAATAAAATTAT [XGTACX_site5641],9.35 ± 0.31
9,TGTATTTTTAACATATGTACGAATAGCACGTGTTAT [XGTACX_site3640],8.89 ± 0.44
10,ATTTTTTCAAAATGGAAAACTTATCAGTGAAAAAAA [CACACA_negctrl_site1087],8.62 ± 0.45
11,CTTGACCCCCTTTGTTGTACTGACATTTGTGAGCTT [XGTACX_site591],9.19 ± 0.39
12,TATTTTATATGATAGGTGCATTTTTTTTTTTTTTTT [GTGCAC_site9757],8.95 ± 0.49
13,GTGCTACATCATATGTGTACATATACCAAACTGTAT [XGTACX_site8233],8.7 ± 0.042
14,TTAATAATGTTTTATTGTACTTTTTTGTGGGTTTAT [XGTACX_site5670],8.72 ± 0.53
15,ATATGTATTGGAGTGTGTACATATATATATATTTAT [XGTACX_site5633],8.64 ± 0.38
16,ATATACATTCAAGGCTGTACACTATATTTTTTTTTT [XGTACX_site6514],8.98 ± 0.54
17,TTTGTGTAAAGAATCAGTACATATAATATATATATA [XGTACX_site1972],9.34 ± 0.33
18,TTTATTTATCTTTACGCACACACTTGCATGTACAAA [CACACA_site1118],9.3 ± 0.26
19,TACCTACCTTTACGGAGTACACAATAATAGTTATAA [XGTACX_site6593],8.74 ± 0.15

row,Sequence,gcPBM binding intensity (ln)
1,GATGATACGATTATCACACATTTATACTTTCTACAT [CACACA_site5669],8.56 ± 0.39
2,TGTATACATTATTAAGTGCAAGTAGGGAAAAAAAAA,8.86 ± 0.43
3,ATATAAAAATAATAGAGTACAAAAAAAAAATGTATA [XGTACX_site7054],8.92 ± 0.4
4,ATATAACTTTTAAAAGCATGCAAATATTTACTCAAT [TGCATGCA_site396],9.16 ± 0.46
5,TAAACATATACACGTACATGCAACGGATTTTTTTTT [TGCATGCA_site70],8.71 ± 0.26
6,CAAGAAAAGAAACACACACACATATATATATATATA [CACACA_site3881],10.1 ± 0.26
7,TTTTTACTATAAGGGGAAAAAAAAAAAAATAATATA [XGTACX_negctrl_site279],8.32 ± 0.46
8,TATATATATATATGTGCACACATAATAAAAAAAAAA [CACACA_site3830],10.32 ± 0.064
9,ATATGATTAATTAAGTGTACGTATTTATAATTATAA [XGTACX_site5783],8.68 ± 0.29
10,ATTACAATTTTAATAGTGCATTTTTATATATTTCTA [GTGCAC_site9918],8.59 ± 0.2
11,GAAGACAATTATATGTGTACATATATATACATATAT [XGTACX_site4630],8.44 ± 0.25
12,GGAATTCATATTAATTGTACATTTAAAGATAGATGA [XGTACX_site3279],8.6 ± 0.48
13,AGTAGATATTATTATAGTACTTTTTATTTTATATTT [XGTACX_site1551],8.36 ± 0.23
14,ATATTAAAGATATATACACACATATTTATAAATATA [CACACA_site7127],8.4 ± 0.52
15,AAAATTTATGGAAGGTGTACTGTTAATTATGTATAT [XGTACX_site6446],8.75 ± 0.21
16,TAATATGTGGACTTTACACACTTGTTTTAAAATTCT [CACACA_site4605],8.32 ± 0.3
17,ATATATATATATATATGTACTTATTTATTTATTTAT [XGTACX_site4645],10.2 ± 0.51
18,ATATTTTACATATTTGCACACATATATTTATATACA [CACACA_site855],8.78 ± 0.26
19,TTAATATATTTTAAAAGTACATAATATTATTTTTTA [XGTACX_site3642],8.04 ± 0.26

row,Sequence,gcPBM binding intensity (ln)
1,AAGAAAAGAACAAGAGCATGCACTTAATAAGAATAA [TGCATGCA_site818],9.76 ± 0.22
2,TTTAAATACAGACATACACACATACACAGACATATA [CACACA_site4460],8.69 ± 0.58
3,AAAAAAAACAGACACACACACATACAAAATATATAT [CACACA_site1449],8.73 ± 0.47
4,CTCTATTGTTAAAAGGTGCTTTTATGATTTTATATA [GTGCAC_site9409],8.6 ± 0.2
5,ATATTTTTATGTACTTCAAAAAAAAAGAAAAACAAA [CACACA_negctrl_site970],8.46 ± 0.4
6,TATAGTTTTGAAAACAAACACACAAAAAAAAAAAAA [CACACA_site1691],8.43 ± 0.55
7,AAGAGGTTAATGAAATGTACACATATATATATATAT [XGTACX_site1861],10.2 ± 0.17
8,TATGTAACCTGTTTTACACACCCCCACCCCCCTCTT [CACACA_site319],10.3 ± 0.17
9,ATAATTTCACAAATAGTGCAAAAATTAGTAAGAATA [GTGCAC_site9648],8.68 ± 0.25
10,TTTTTTTTCTATGTGGTGCACATTATTTTTTTTTTT,9.03 ± 0.16
11,TTTTATAAATATTATACATGCATAATGATAAAAAAA [TGCATGCA_site927],8.83 ± 0.28
12,AAAAATAAAGGATATACACACTAATTCTATAAATAT [CACACA_site7344],8.45 ± 0.29
13,TATAAGTATTAATACACACACAAAATAATAAAAAAA [CACACA_site3481],8.7 ± 0.21
14,GTCTCGATAATGAAAAGTACAAAATAAAAATAATAA [XGTACX_site6471],8.66 ± 0.35
15,TAAAGAATAATACATTCACACAATATTATAAAAATA [CACACA_site5986],8.38 ± 0.33
16,TATGATTAATTACCACAATTGACAAAAAAAAAAAAA [CACACA_negctrl_site336],8.36 ± 0.53
17,GAAATGTCATATAATAGTACACACATGAAAATATAA [XGTACX_site6838],8.81 ± 0.41
18,TTGTATGAATTTATTTTTATTGATAATTAATATGTA [TGCATGCA_negctrl_site143],8.18 ± 0.47
19,ATACAAAAGGGGAATACACACACATATATATATATA [CACACA_site8694],10.1 ± 0.33

# From the supplement of paper PMC11417369
